Structures are written as SMILES. Where “and” joins values, the source holds several entries; their conditions need not be identical. Identical values can stand only once.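 Grown in 96-well plates, cells were treated for 48 hours with each compound at five concentrations. Insufficient inhibition: endpoint recorded as highest concentration tested. GI50 marks 50% less growth.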 Calls of active or inactive are those of the source. Rule as the data show it: active = GI50 up to about 1.1 µM and inactive = higher. Where only a bound is given, the exact number is not on record here.

For the assay, the system named is NCI-H322M. The experiment in a line: DTP human tumour cell line panel, 48 h.
As for `Nc1nc(Cc2ccccc2)nc(Cc2ccccc2)c1-c1ccccc1`, the GI50 – broadly, the concentration at which growth is held to half of that of the control – is inactive: 32.9 µM.

Regarding `CCOC(=O)Cc1nn2c(=O)cc(C)nc2s1`, the GI50 was inactive: > 100 µM.

With `COc1nc(C#CCCCC#N)nc(OC)n1`, the GI50 was inactive: 19.1 µM.

On to `Sc1ncc2[nH]nnc2n1`, for which the GI50 was inactive: > 100 µM.

`O=C1CC(c2cccc(Br)c2)n2cccc21` (stereo unspecified): the GI50 was inactive: > 100 µM.

In the case of `Cc1ccc(S(=O)(=O)NC(C)C(=O)O)cc1` (stereo unspecified), the GI50 was inactive: > 100 µM.

In the case of `C=CC1OC(CCCOC(=O)C(C)(C)C)O[C@@H]1CC` (stereo partly specified), the GI50 was inactive: > 100 µM.

For the compound `COC(=O)CC1C2(C)C3=C(C)C(c4ccoc4)CC3OC2C2OC(=O)C3(C)C=CC(=O)C1(C)C23` (stereo unspecified), the GI50 is inactive: 2.1 µM.

Turning to `N#CC(C#N)/N=C/c1ccncc1`, the GI50 was inactive: > 100 µM.

Turning to `COc1ccc2c(c1)CC[C@@H]1[C@@H]2CC[C@]2(C)/C(=N/OCCN3CCCCC3)CC[C@@H]12`, the GI50 was inactive: 3.65 µM.

Turning to `O=C(O)C1Cc2c([nH]c3ccccc23)C(CCCCO)N1` (stereo unspecified), the GI50 was inactive: > 100 µM.

With `CCOC(=O)Nc1ccc(S(=O)(=O)Nc2ccc(Br)cc2)cc1`, the GI50 was inactive: 71.3 µM.

Turning to `CC1=C2C(=O)c3ccccc3C(=O)[C@H]2C[C@@H](N2CCCCCC2=O)O1`, the GI50 was inactive: 22.6 µM.

Consider `NCCn1ccc(NC(c2ccccc2)(c2ccccc2)c2ccccc2)nc1=O`, for which the GI50 was inactive: 22.9 µM.

In the case of `CCN(CC)CCC1(C2CCCCC2)CCC(=O)NC1=O` (stereo unspecified), the GI50 is inactive: > 100 µM.

For `COc1ccc(/C(C)=N/NC(=O)c2ccncc2)cc1OC`, the GI50 was inactive: > 10 µM.

Regarding `Cc1ccc(C)c2sc3cc(=O)ccc-3nc12`, the GI50 is inactive: 52.2 µM.

As for `C=C1C(=O)OC2/C=C(/CO)C3(O)CC(O)C(C)(CC(OC(=O)/C(C)=C/C)C12)O3` (stereo unspecified), the GI50 was inactive: 44.7 µM.

With `CCc1nc2cc(/N=N/c3c(O)ccc4ccccc34)ccc2[nH]1`, the GI50 was inactive: 23.4 µM.

On to `O=C(CC1(O)C(=O)Nc2ccccc21)c1ccccc1Cl` (stereo unspecified), for which the GI50 was inactive: > 100 µM.

Regarding `O=C(/C=C/c1ccccc1)c1ccc(NCc2nc3ccccc3[nH]2)cc1`, the GI50 was inactive: 12.1 µM.

Turning to `NS(=O)(=O)c1ccc(Nc2c3ccccc3nc3c(C(=O)NCCCN(CCO)CCO)cccc23)cc1`, the GI50 is inactive: 30.7 µM.

As to `COc1ccc(C2c3cc4c(cc3OC(Nc3ccccc3)C2C)OCO4)cc1` (stereo unspecified), the GI50 was inactive: > 100 µM.

Consider `CC1=Cc2ccc(C)cc2C(=O)C1=O`, for which the GI50 is inactive: 20.1 µM.

On to `COc1cc(C(c2c(O)c3ccccc3oc2=O)c2c(O)c3ccccc3oc2=O)cc(Br)c1O`, for which the GI50 is inactive: 19.3 µM.

Turning to `COC(=N)C1(C#N)NC(c2ccsc2)C(C#N)(C#N)NC1c1ccsc1` (stereo unspecified), the GI50 was inactive: > 100 µM.

Turning to `Cc1cccc(/C=N/C23CC4CC(CC(C4)C2)C3)c1`, the GI50 is inactive: > 100 µM.

As for `O=C(CNc1ccccc1[N+](=O)[O-])Nn1c(-c2ccccc2)nc2ccccc2c1=O`, the GI50 is inactive: 21 µM.

Take `CN(C)[C@@H]1C(O)=C(C(N)=O)C(=O)[C@@]2(O)C(O)=C3C(=O)c4c(O)cccc4C[C@H]3C[C@@H]12`: the GI50 was inactive: 2.44 µM.

`CC/C(Cl)=N\OC(=O)Nc1ccccc1OC(F)(F)F`: the GI50 is inactive: 19.6 µM.

`C=C1C[C@@H](O)[C@@H](Br)C(C)(C)[C@@]12C=CC(O)(CBr)CC2` (stereo partly specified): the GI50 was inactive: 48 µM.

As to `O=c1ccn(CC2(CO)CCC2)c(=O)[nH]1`, the GI50 is inactive: > 100 µM.

As to `CSc1nc(-c2ccccc2)nc(N2CCOCC2)[s+]1`, the GI50 is inactive: > 100 µM.

On to `Cc1cccc(C(C)C)c1N1C(=O)C(=O)C(c2nc3ccccc3o2)C(=O)C1=O`, for which the GI50 is inactive: > 100 µM.

With `N=C1SCCS1`, the GI50 is inactive: > 100 µM.

For the compound `O=C1CCC2SC1CCC2=O`, the GI50 is inactive: > 100 µM.

For `COC(=O)CSc1nnc(-c2ccc(O)c([N+](=O)[O-])c2)[nH]1`, the GI50 is inactive: > 100 µM.

On to `OC(CC(O)(C(F)(F)F)C(F)(F)F)C(O)c1ccco1` (stereo unspecified), for which the GI50 is inactive: > 10 µM.

For `CC1(C)C2CCC1(C)C(NC(=O)CCN1CCOCC1)C2` (stereo unspecified), the GI50 was inactive: > 100 µM.

`COc1ccc(-c2c(C(C)=O)c(-c3ccccc3)n(C3OC(COC(C)=O)C(OC(C)=O)C(OC(C)=O)C3OC(C)=O)c(=S)c2C#N)cc1O` (stereo unspecified): the GI50 is inactive: > 100 µM and inactive: 89.7 µM.

As to `CC(=O)OCC1OC(Sc2nc(-c3ccc(C)cc3)c(C#N)c(=O)n2C2OC(COC(C)=O)C(OC(C)=O)C(OC(C)=O)C2OC(C)=O)C(OC(C)=O)C(OC(C)=O)C1OC(C)=O` (stereo unspecified), the GI50 was inactive: > 100 µM.

In the case of `O=C(CN1CCN(Cc2ccccc2)CC1)N1CCCn2c1nc1ccccc1c2=O`, the GI50 is inactive: > 100 µM.

In the case of `O=C1NC(=O)C(C(CC(=O)c2ccc(Cl)cc2)c2ccc(Cl)cc2)C(=O)N1` (stereo unspecified), the GI50 was inactive: 39.7 µM.

Turning to `CCOC(=O)c1cc(-c2ccc(OC)cc2)c([N+](=O)[O-])n1C`, the GI50 was inactive: > 10 µM.

For `N#Cc1c(N2CCN(c3ccc([N+](=O)[O-])cc3)CC2)[n+]([O-])c2ccc(-c3ccc([N+](=O)[O-])cc3)cc2[n+]1[O-]`, the GI50 was inactive: > 100 µM.

Turning to `CCc1n[nH]c(=O)n1CCCCCCCCCCCCn1c(CC)n[nH]c1=O`, the GI50 was inactive: 52.2 µM.

Regarding `CC(=O)OCC12CN(C#N)C3C4COC(CC41)C1(C(=O)N(C)c4ccccc41)C32` (stereo unspecified), the GI50 was inactive: 34.4 µM.

With `COC(=O)C(Cc1ccc(OC)cc1O)NC(=O)OC(C)(C)C` (stereo unspecified), the GI50 is inactive: > 100 µM.

As to `ClC(/N=N/c1ccccc1)=N/Nc1ccccc1`, the GI50 is inactive: > 100 µM.

For `C[C@H]1[C@H]2[C@H]3CC[C@@H]4[C@@]5(C)CC[C@H](O)C(C)(C)[C@@H]5CC[C@@]4(C)[C@]3(C)C[C@H](O)[C@@]2(C)C[C@H]2O[C@]21C`, the GI50 was inactive: 21.9 µM.

In the case of `Cc1cc(N(CCC#N)CCC#N)ccc1/C=C/C(=O)Nc1cccc(Cl)c1`, the GI50 was inactive: > 100 µM.

Take `O=C(Nc1nnc(S)[nH]1)C(=O)C1C(=O)Nc2ccccc2[S+]1[O-]` (stereo unspecified): the GI50 is inactive: > 100 µM.

With `CCOC(O)(NC(=O)C(C(F)(F)F)C(F)(F)F)C(F)(F)F` (stereo unspecified), the GI50 was inactive: > 100 µM.

On to `C/N=C1\CC2c3cc(OC)c(OC)cc3CCN2C2=C1C(=O)CC(C)(C)C2` (stereo unspecified), for which the GI50 was inactive: > 100 µM.

Turning to `COC(=O)C1OC(O[C@H]2CC[C@]3(C)[C@H]4CC=C5[C@@H]6CC(C)(C)CC[C@]6(C(=O)OC6OCC(O)C(O)C6OC6OC(C)C(OC7OCC(O)C(O)C7O)C(O)C6O)CC[C@@]5(C)[C@]4(C)CC[C@H]3C2(C)C)C(O)C(O)C1O` (stereo partly specified), the GI50 was inactive: 15.2 µM and inactive: 13.2 µM.

With `Cc1cc2c(cc1C)[n+]([O-])c(C(=O)/C=C/c1ccccc1[N+](=O)[O-])c(C)[n+]2[O-]`, the GI50 is inactive: > 100 µM.

As for `Cc1nc(Cl)nc(Cl)c1C`, the GI50 was inactive: > 100 µM.

In the case of `O=C1Sc2sc(=S)sc2SC1c1ccccc1` (stereo unspecified), the GI50 is inactive: > 100 µM.

Consider `Cc1c2cc[n+](C)cc2c(COC2OC(CO)C(O)C2O)c2c3ccccc3n(C)c12` (stereo unspecified), for which the GI50 was inactive: > 100 µM.

Regarding `Cc1ccc(/C=N\NC2c3cc(Cl)ccc3Nc3nc(O)nc(C)c32)cc1` (stereo unspecified), the GI50 is inactive: 75.2 µM.

For `O=C(c1ccccc1)C(c1ccccc1)C1(O)C(=O)Nc2c(Cl)ccc(Cl)c21` (stereo unspecified), the GI50 was inactive: 26.5 µM.

For the compound `Cc1cc(C)nc(NS(=O)(=O)c2ccc(Nc3c4ccccc4nc4c(C(=O)NCCO)cccc34)cc2)n1`, the GI50 was inactive: 10 µM.

Turning to `Cc1ccc2c(=O)c(C(=O)NNC(=S)NC3CCCCC3)c[nH]c2n1`, the GI50 is inactive: > 100 µM.

Turning to `Brc1ccc(C[P+]2(c3ccccc3)CCCCC2)cc1.[O-][Cl+3]([O-])([O-])[O-]`, the GI50 is inactive: > 100 µM.

As for `O=c1c2cccnc2ncn1CCN1CCCC1`, the GI50 was inactive: > 100 µM.

With `Cc1cn(Cc2ccccc2CCO)c(=S)[nH]c1=O`, the GI50 was inactive: > 100 µM.

On to `COc1ccc2nc3c(nc2c1)C(C)(C)C=C3c1ccc(Br)cc1`, for which the GI50 was inactive: > 100 µM.

`CCC1C(NC(=O)OC)C(=O)N1[C@@H](C)c1ccccc1` (stereo partly specified): the GI50 is inactive: > 100 µM.

On to `C[N+]1=C2[B-](C(C)(C)C)=[N+](C(C)(C)C)[B-]2(C(C)(C)C)[N+](C)=C2[B-](C(C)(C)C)=[N+](C(C)(C)C)[B-]21C(C)(C)C` (stereo unspecified), for which the GI50 was inactive: > 100 µM.

On to `O=c1oc2c3ccc4ccccc4c3n(CCN3CCCCC3)c2c2ccccc12`, for which the GI50 is inactive: 41.5 µM.

Consider `CSC(SC)=C1C(=O)NN=C1C`, for which the GI50 was inactive: > 100 µM.

`Nc1nc(N)c2c(n1)CCC(S(=O)(=O)c1ccc3ccccc3c1)C2` (stereo unspecified): the GI50 is inactive: 5.78 µM.

As for `CC(C)(C)NN=C1C(C)(C)C(=NNC(C)(C)C)C1(C)C`, the GI50 is inactive: > 100 µM.

In the case of `S=C1SC(c2ccc(Cl)cc2)(c2ccc(Cl)cc2)c2ccccc21`, the GI50 is inactive: 77.6 µM.

Take `CC(O)C1(O)C(O)CC(OC2c3cc4c(c(O)c3[C@@H]3C[C@@]2(C)OC32C=c3cc[nH]c3=N2)C(=O)c2cccc(O)c2C4=O)OC1C` (stereo partly specified): the GI50 is inactive: 2.05 µM.

Consider `Cc1ccc(-n2nncc2[Si](C)(C)C)s1`, for which the GI50 was inactive: > 100 µM.

Regarding `Cc1ccccc1NC(=O)Cc1csc(N/N=C2\NC(=O)/C(=C/c3cccc([N+](=O)[O-])c3)S2)n1`, the GI50 was inactive: 47.8 µM.

`CCN(CC)CC[n+]1ccc2c(C)c3[nH]c4ccccc4c3c(C)c2c1`: the GI50 is active: 0.59 µM.

As to `N[C@@H]1CCN(c2c(F)cc3c(=O)c(C(=O)O)cn4c3c2Oc2c-4ccc3c2ccc2ccccc23)C1`, the GI50 was active: 0.685 µM.

For the compound `CN(C)Cc1cc(C(=O)/C=C/c2ccc(Cl)cc2)cc(CN(C)C)c1O`, the GI50 was inactive: 13.6 µM.

In the case of `COc1cc(/C=C/c2ccncc2)cc(OC)c1OC`, the GI50 was inactive: > 100 µM.

(Values after ChEMBL document CHEMBL1201862, “PubChem BioAssay data set” (2004).)
